Hit rate of the full screen: of about 360,000 compounds, about 16,000 (4.4%) were called active. This list was built around the results that the source calls inconclusive (neither active nor inactive); the mix of calls is not that of the screen. Calls come from the whole dose curve; as a rule, active = well fitted inhibition curve with a large enough effect; inconclusive = small, poorly fitted or top-dose-only effect; inactive = no such curve, though single readings can be large or run the other way. Where the call is inconclusive, the potency comes from a doubtful curve fit.
Molecular target: Bromodomain adjacent to zinc finger domain protein 2B (Homo sapiens) (UniProt Q9UIF8)
Assay: qHTS Assay for Inhibitors of BAZ2B; note: nearly all actives have a fitted effect of over 60% in size
Details: AlphaScreen BAZ2B-H3K14Ac peptide displacement; series mostly up to 114 µM
Summary of the method: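 AlphaScreen displacement: compounds (up to 110uM) incubated 30 min at room temperature with a preformed 50 nM BAZ2B/50 nM biotinylated H3K14Ac peptide complex in PBS pH 7.4 with Tween-20. Donor and acceptor beads at 10 ug/mL final added, 20 min light-protected before reading.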
Potency is the fitted concentration of half-maximal effect; tags give direction and shape of the fitted curve.

UniProt Q9UIF8, sequence (Q9UIF8 whole entry, looked up, the tested form may be a part): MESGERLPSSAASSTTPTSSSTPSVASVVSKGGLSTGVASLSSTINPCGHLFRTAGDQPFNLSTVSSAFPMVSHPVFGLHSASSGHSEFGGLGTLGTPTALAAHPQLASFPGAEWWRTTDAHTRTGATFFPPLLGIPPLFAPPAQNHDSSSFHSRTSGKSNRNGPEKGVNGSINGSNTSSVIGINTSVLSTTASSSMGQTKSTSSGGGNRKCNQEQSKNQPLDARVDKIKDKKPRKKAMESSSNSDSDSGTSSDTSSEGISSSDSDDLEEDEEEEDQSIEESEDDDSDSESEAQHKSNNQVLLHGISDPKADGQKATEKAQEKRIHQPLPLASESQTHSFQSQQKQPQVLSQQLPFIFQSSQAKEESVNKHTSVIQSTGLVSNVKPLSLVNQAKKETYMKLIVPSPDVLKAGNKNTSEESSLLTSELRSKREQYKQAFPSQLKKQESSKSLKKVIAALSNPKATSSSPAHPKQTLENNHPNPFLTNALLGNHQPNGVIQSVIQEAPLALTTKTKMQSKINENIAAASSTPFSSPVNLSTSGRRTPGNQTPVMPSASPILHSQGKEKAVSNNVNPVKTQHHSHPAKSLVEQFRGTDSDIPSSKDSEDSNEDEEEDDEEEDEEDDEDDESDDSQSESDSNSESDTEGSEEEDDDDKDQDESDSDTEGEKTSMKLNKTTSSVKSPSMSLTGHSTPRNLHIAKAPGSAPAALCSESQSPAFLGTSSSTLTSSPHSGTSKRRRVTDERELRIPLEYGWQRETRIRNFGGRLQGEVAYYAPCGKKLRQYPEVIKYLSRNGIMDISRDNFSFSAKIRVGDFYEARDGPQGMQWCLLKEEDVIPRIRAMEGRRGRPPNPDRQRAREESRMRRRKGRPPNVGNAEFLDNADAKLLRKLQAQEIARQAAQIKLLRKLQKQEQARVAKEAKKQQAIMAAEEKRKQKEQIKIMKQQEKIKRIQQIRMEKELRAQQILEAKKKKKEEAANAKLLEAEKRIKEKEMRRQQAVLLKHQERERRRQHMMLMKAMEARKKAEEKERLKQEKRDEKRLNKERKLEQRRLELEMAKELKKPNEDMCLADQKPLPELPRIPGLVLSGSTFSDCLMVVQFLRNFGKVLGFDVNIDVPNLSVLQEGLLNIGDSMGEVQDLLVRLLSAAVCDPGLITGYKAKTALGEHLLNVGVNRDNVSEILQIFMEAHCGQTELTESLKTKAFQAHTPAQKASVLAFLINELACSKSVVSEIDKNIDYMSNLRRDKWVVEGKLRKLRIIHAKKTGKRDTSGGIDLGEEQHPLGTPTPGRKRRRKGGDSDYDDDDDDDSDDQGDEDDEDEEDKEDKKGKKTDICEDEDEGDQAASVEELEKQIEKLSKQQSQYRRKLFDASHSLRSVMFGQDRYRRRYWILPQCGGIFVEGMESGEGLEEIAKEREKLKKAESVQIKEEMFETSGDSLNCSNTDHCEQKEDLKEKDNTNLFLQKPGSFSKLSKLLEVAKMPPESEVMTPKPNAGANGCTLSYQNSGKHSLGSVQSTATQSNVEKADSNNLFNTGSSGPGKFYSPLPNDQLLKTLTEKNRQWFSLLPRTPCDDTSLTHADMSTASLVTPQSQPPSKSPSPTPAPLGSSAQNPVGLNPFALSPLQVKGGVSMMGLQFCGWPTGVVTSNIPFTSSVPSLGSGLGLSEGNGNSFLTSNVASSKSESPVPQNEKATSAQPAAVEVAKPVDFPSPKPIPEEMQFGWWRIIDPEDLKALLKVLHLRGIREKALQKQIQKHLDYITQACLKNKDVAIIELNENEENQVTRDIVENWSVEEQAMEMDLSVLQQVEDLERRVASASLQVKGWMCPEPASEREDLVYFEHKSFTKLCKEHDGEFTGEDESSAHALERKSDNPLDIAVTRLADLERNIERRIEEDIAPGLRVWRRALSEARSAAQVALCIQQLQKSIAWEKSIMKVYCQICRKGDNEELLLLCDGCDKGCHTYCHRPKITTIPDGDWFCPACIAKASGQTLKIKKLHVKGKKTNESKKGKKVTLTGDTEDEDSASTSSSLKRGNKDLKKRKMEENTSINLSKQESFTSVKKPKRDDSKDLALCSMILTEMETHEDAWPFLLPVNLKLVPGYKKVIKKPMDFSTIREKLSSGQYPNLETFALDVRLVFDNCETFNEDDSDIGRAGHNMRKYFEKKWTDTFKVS

SMILES | Potency
Cc1ccc2nc(-c3ccncc3)cc(-c3ccccc3)c2c1 | inconclusive: 79.4 µM [inhibitor, single point]
CCCS(=O)(=O)Nc1cccc(-c2cn3ccc(C)cc3n2)c1 | inconclusive: 89.1 µM [inhibitor, single point]
O=C(Nc1cccc(Cl)c1N1CCCC1)c1ccc(Br)o1 | inconclusive: 50.1 µM [inhibitor, partial curve]
COc1ccc2c(-c3ccccc3)cc(N3CCOCC3)nc2c1 | active: 25.1 µM
CCc1ccc(C(=O)COC(=O)CNC(=O)c2ccc(N3C(=O)c4ccccc4C3=O)cc2)cc1 | inconclusive: 100 µM [inhibitor, single point]
C=C(C)C(=O)Nc1cccc(C2=NOC3(C2)C[C@@H](C(N)=O)N(C(=O)c2ccc(Cl)cc2)C3)c1 (stereo partly drawn) | active: 11.2 µM
COCCNc1c(-c2cc3ccc(C)c(C)c3[nH]c2=O)nc2ccccn12 | inactive
Cc1cc2cc(CNC(=O)c3cccs3)ccc2[nH]1 | inconclusive: 79.4 µM [inhibitor, single point]
COc1cnc(-c2ccccn2)nc1Oc1cccc(C(F)(F)F)c1 | inconclusive: 89.1 µM [inhibitor, single point]
N#Cc1nc(-c2ccc(COc3ccccc3)o2)oc1N1CCN(c2ccccc2)CC1 | inconclusive: 7.08 µM [inhibitor, full curve, poor fit]
N#C/C(=C\c1ccc(-c2ccccc2[N+](=O)[O-])o1)C(=O)N1CCOCC1 | inconclusive: 50.1 µM [inhibitor, partial curve]
CN(C)c1cccc(C(=O)N2CCCC(CCC(=O)NCc3ccccc3F)C2)c1 (stereo not drawn) | inconclusive: 79.4 µM [inhibitor, single point]
N#Cc1c(-c2ccncc2)c2c([nH]c1=S)CCCC2 | inconclusive: 50.1 µM [inhibitor, partial curve]
O=C(NCc1ccco1)Nc1ccc([N+](=O)[O-])cc1 | inconclusive: 89.1 µM [inhibitor, single point]
CC(=O)Nc1ccc2nc3c(=O)n(C)c(=O)n(C)c3nc2c1C | inactive
CCOC(=O)Cn1c(=O)oc2cc(S(=O)(=O)N3CCN(c4cccc(C)c4)C(C)C3)ccc21 (stereo not drawn) | inactive
[N-]=[N+]=NC[C@H](Cc1ccccc1)N1CCN(Cc2ccccc2)CCC1=O | inconclusive: 100 µM [inhibitor, single point]
O=C(CN1c2ccccc2Sc2ccccc21)N/N=C/c1ccccc1 | inconclusive: 39.8 µM [inhibitor, partial curve]
C=CCN(CC=C)c1ccc(N2C(=O)C3CCCCC3C2=O)cc1[N+](=O)[O-] (stereo not drawn) | inconclusive: 25.1 µM [inhibitor, full curve]
COc1ccccc1CNC(=O)C(C)n1c(=O)cc(-c2ccccc2)c2c(C)nn(C)c21 (stereo not drawn) | inconclusive: 89.1 µM [inhibitor, single point]
COc1ccc(-c2ccc(/C=C(\NC(=O)c3ccccc3)C(=O)N3CCOCC3)o2)cc1 | inconclusive: 44.7 µM [inhibitor, partial curve]
COc1cc(OC)cc(-c2nnc(NC(=O)Cc3ccc(F)cc3)o2)c1 | inactive

SMILES | Potency
Brc1ccc(-c2noc(COc3ccc4ccccc4c3)n2)o1 | inconclusive: 31.6 µM [inhibitor, full curve]
COc1ccc(Br)cc1[C@@H]1Nc2ccc(C(=O)O)cc2[C@@H]2C=CC[C@@H]21 | inconclusive: 70.8 µM [inhibitor, partial curve]
Oc1cccc2ccc(/C=C/c3ccccc3Br)nc12 | inconclusive: 20 µM [inhibitor, full curve]
COc1ccc(C(C)(C)C)cc1NC(=O)COC(=O)C1=NNC(=O)CC1 | inactive
Cc1oc(-c2ccccc2F)nc1CN1CCC(C(=O)NCCc2ccccc2)CC1 | inconclusive: 79.4 µM [inhibitor, single point]
COc1ccc(C(=O)COC(=O)c2cc(-c3cccs3)nc3ccccc23)cc1 | inactive
COc1ccc(OC)c(Nc2sc(C(=O)c3ccccc3)c(N)c2S(=O)(=O)c2ccccc2)c1 | inactive
O=C(O)c1ccc(N/N=C/c2cn(Cc3ccc(F)cc3)c3ccccc23)cc1 | active: 44.7 µM
CNC(=O)/C(C#N)=C\c1ccc(CNS(=O)(=O)c2ccc(Cl)cc2)o1 | inconclusive: 89.1 µM [inhibitor, single point]
COc1cc(C2N(c3ccccc3)CCN2c2ccccc2)ccc1OC(C)=O | inconclusive: 89.1 µM [inhibitor, single point]
O=C1CCC(C(=O)Nc2cccc(Br)c2)N1 (stereo not drawn) | inconclusive: 89.1 µM [inhibitor, single point]
COc1ccccc1-c1nc(C(=O)NCC2CCCO2)cc2c1[nH]c1ccccc12 (stereo not drawn) | inconclusive: 89.1 µM [inhibitor, single point]
O=C(Nc1cccc(Cl)c1N1CCOCC1)c1ccco1 | inactive
C[C@@H](C(=O)Nc1ccc2ccccc2c1)[C@@H]1C[C@@]1(C)[C@@H](NC(=O)c1cnccn1)c1ccccc1 | inactive
CC(C)S(=O)(=O)C1=NSC2=NC(=O)/C(=C\c3ccc(OC(=O)c4ccco4)cc3)C(=N)N21 | inconclusive: 89.1 µM [inhibitor, partial curve]
Cc1ccc[n+](CC(=O)Nc2ccc(N(C)C)cc2)c1 | inconclusive: 79.4 µM [inhibitor, single point]
COc1ccc(NC(=O)C2=CC(c3ccc(C)cc3)=NS(=O)(=O)N2C)cc1 | inconclusive: 39.8 µM [inhibitor, full curve, poor fit]
CC(=O)Nc1sc2c(c1CN1CCN(c3ccc(F)cc3)CC1)CCCC2 | active: 50.1 µM
COc1ccc(S(=O)(=O)N2CCOCC2)cc1NC(=O)CCc1c[nH]c2ccccc12 | inconclusive: 44.7 µM [inhibitor, partial curve]
COc1ccc(N2CCN(S(=O)(=O)c3ccc(-c4ccno4)cc3OC)CC2)cc1 | active: 22.4 µM
O=C1CCCN1C(=O)CSc1ncnc2sccc12 | inconclusive: 89.1 µM [inhibitor, single point]
